Laboratory results taken from the supplement of paper PMC12632987.
In all, about 1,800 sequences were measured (“median log2 fold change of GCK-ALFA target abundance (FLAG IP / Myc IP barcode read proportion)”: median about 0.14, lowest 2% from about -0.84 on). The list shows a part of the results.

T1: TRAF2, Q12933
T1 chain: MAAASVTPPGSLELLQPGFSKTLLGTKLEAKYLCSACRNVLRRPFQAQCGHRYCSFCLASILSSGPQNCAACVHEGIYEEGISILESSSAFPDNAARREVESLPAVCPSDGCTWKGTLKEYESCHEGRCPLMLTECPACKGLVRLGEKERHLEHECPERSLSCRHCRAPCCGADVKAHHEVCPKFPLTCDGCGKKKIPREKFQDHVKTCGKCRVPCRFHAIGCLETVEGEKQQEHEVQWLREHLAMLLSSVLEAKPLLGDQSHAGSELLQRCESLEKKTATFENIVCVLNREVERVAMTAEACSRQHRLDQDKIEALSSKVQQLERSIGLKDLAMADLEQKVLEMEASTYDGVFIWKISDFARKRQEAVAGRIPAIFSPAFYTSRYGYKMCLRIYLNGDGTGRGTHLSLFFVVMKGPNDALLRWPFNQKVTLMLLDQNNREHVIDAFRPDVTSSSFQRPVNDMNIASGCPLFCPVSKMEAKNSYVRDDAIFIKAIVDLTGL

B1: traf2_out_12_50_975 (protein)
chain: SEEEEEEEENERFREEADRILEKRDELWKETGGDVEKFAEKLLEIAKKSLEDAKLALRVARAKLSELLQRGEDTSVIAKAIDEIEKILEELEEKEEAAKA
B2: traf2_out_11_155_754 (protein)
chain: SEKQKLINEMNDKIMEIYDKAREEVDKLLEETAKKYPEHKEKIEKLKEETKSFSPKTYMLKALELMKELGLEEEAKKIEEIIEKTQKEASKIVIETEKKL
B3: traf2_out_11_169_797 (protein)
chain: EEAEKNRELNDFALELNDKAKEELLKHALELAKKEGLDVKEVEKIYEKNKNRSLSAVASALIKYFKSKGAEKAAKAVLEKYEELKDKINKEFTEKMKELE
B4: traf2_out_17_162_1606 (protein)
chain: GELEKEKEEIKKLLEELKKKLKELEEKLKRIKELSKEELTDLLVEASEARRKALEALERVKELKDLLDEEEYEKLATELEEIAERFQRLANEFYKELEKK
B5: traf2_out_17_178_1688 (protein)
chain: SKEEERKKISELTDKLIDLTVATGEALLARAEAEGTLSPEELAALRAAIRRGSNRTFEALAARAAPRLADAAAAAAALDAWKAEAAALSKEIAAAYEKYE
B6: traf2_out_14_149_1266 (protein)
chain: SKVEEVAERVLELLKEVVEQAKKAIETGTQEALEALYKKIKEAAEEMKKLGEEIGVSLSEVFRLEHLASQKDLPLEERLKELEEILERAEVTMEFLKREA
B7: traf2_out_13_95_1157 (protein)
chain: SAELAKKIMEIADEMLDRSLAVLDALLAKAKAAGKLEAEVAEARHLAETRSINEAIAKLRELAKAHPEFKAELDAAIAELEALRREAGRKVAELIKEEEE
B8: traf2_out_17_162_1531 (protein)
chain: SMLEEKLKKLEEELEKLKKKLKELKKKLEEIENMSKEELSDLLVEASEARREARKLAEELKKLKKEIGEEKAEKLIKEAEKIAEELQRIANELYKELEKK
B9: traf2_out_17_178_1716 (protein)
chain: SKEEYRKKISELTDELIDLAEEAAARLLALAEAEGRLSPEELAALREARRRGSPNDTLALGRRIAPKLSSQAEAQALLDDFEKKSRELAKKIAEAYEKYE
B10: traf2_out_19_16_1971 (protein)
chain: AEAELAALEAELKAIEARVEALEKYFEENEETLTREEVSDLLVEASELKRRAREIRERLATLTDWDPARVGALRARAEAIERRAQRLMNRLVEKYEELLK
B11: traf2_out_5_63_2361 (protein)
chain: SERDRLTALAREADRLVRELLAAAAAGDEARVQALIDRAVADPELARLVLGILRGEARYYELLGDKPEEAARAAALAARLEAAMAAREAEAAAAAAAAAA
B12: traf2_out_13_95_1202 (protein)
chain: SEEKTKKIREVTNEIADELLDFAEETAEKVEKETGKAEHRDRILAALNGRGVSAAIEVLRELAAEDPEHAEIYNKAAEELEEKRREAGKKFAEKLKEIEE
B13: traf2_out_18_167_1862 (protein)
chain: SEELKKELEEVTDELVRVSAIRRVFLEALQALEESREAAKALLEAAVAEFPDSEELRAALEVLRTESPEAFKAFLEEQIERLQKRANELYKKREELEKKL
B14: traf2_out_17_162_1648 (protein)
chain: SSVEEELREFERELEELERELERLRERLERLAELSREELSDLLVEASELRRRARELLQRIEEHKDLLPEERYEELRRRAEEIEREAQRIAQAFYDAYLAK
B15: traf2_out_3_77_2276 (protein)
chain: SAEREAARAALDEATTAAIASLAVLAINRPEKAEKYREMAARLHRAAAVAKEAGAEAEFLPLVEALLKAAKALNDGDEEAEKKIEELLAEIEAKAAALRA
B16: traf2_out_12_50_981 (protein)
chain: SEEEREREENERLAALGDEAIDRADAILAETGGDPAAAFARIKAEAAADPSQARFLKVVARVLRNKFLRAGADPATVGALADDTLAYLDEIIEKKVAPKP
B17: traf2_out_11_155_768 (protein)
chain: EEKLKINQEFVDKVMEIRDKAIEEIKNLILNDESLTEEEKEKLLSILDKYESLGLRSMAEELIREAKSLGHEELAKKIKEILEKAQKEMSKIAIEAEKKI
B18: traf2_out_5_63_2344 (protein)
chain: SEREELTALAREADRLVRELLEAAEAGDEERVEALLEEAVADPELARLVLGILTAEARAYRLSGTEPEQAKIAEELRERLAARAAARAAAEAAAAAAAAA
B19: traf2_out_18_3_1947 (protein)
chain: SEEKRKELSDKLDEIYDDHVDWLLARARELVARDPRFQPALDRIEAIRKQGPRPSTIANTLIDALLELGYEEEAKEVEDYYSEKAKKASEVIDEYEKAIK
B20: traf2_out_18_167_1888 (protein)
chain: SEELKKKLEELSDKIVLLSEIRRVLLLALEALKESREKAKEVIETGLSKLPESEEKKETLEVLKTKSPEEIRKFLEEKSEELQKKANEAYKEYEELRKKL
B21: traf2_out_8_174_2571 (protein)
chain: MDKEDLNLASKFLLEMEEKFEEIDELEEELKDKPLEERLKILKEEIKKIEKEMLEKIKEEKAKSSPETQKLLDRVAETVKIRAENRIKALELRAKAEKEK
B22: traf2_out_6_156_2397 (protein)
chain: MVEEILEETKKKIEELIKELSKASEEEKIKYINKIAGTVYRGLQRLREAGASVEEIEEFGKEILEFTEKKLKEEGIDEDTRNLILSSLQAVIDVAIEAAK
B23: traf2_out_13_95_1142 (protein)
chain: SKEVAEKIMEIADEMLEEKDKILKELEEELKKKGLLTPELKKALEEARNSSISTAIHILQELSKKYPEAKELLDKAIEELEKIKREAGRKVAEILKEEKE
B24: traf2_out_9_17_2604 (protein)
chain: AAARARRRERLLAAVREVLEELVERGYITEEQAEEILEKVRALLDAGASPDEVIAHTLGMIASILLTKSDLSLSEVNRVVGEAYRKLREGRRALEAEEAA
B25: traf2_out_11_155_739 (protein)
chain: EEKLKLNQEMNDKIMELFEKAREEADAILAEAAAAHPEHAAAIAALREATRGFSYRSYILSAIELFRELGLEEEAARLEALLEETQKKANEIVKETEKKL
B26: traf2_out_13_95_1215 (protein)
chain: SAEANEKLRKVSNDMLDEVEAIVDDLAAALAPHPETQPAMDAIRAALRRNGVNAAIAAIRAAAAAHPEVAAAFDAAAAALEAVRRKAGEEVAKILKEEEE
B27: traf2_out_17_178_1678 (protein)
chain: SKEEQRKKISEYTDKLIDLTERTGAEFLARAEAEGTLSPEELAALRAARRRGSNRTFLALARRAAPKLASAAEAAALLAAFEAEARELSKKIAEEYEKYE
B28: traf2_out_18_3_1908 (protein)
chain: KEEERKKLTDEIDKIEDEARARAARELARLAAEHPEVAAELAALRADLEAGGGAFGVLEALAELARRLGDEERAAEIEEFLRKKRKEFQKLVDEYEKLIE
B29: traf2_out_3_89_2297 (protein)
chain: SAAYEAKLKEAKENAERYVKGFEKSATYVAKEMIKDGHSLDTIKGVLNAARSALVEELRRSLKERGLSQEDIDEIVKKAKEELDKIVEKVVEEAEKERKA
B30: traf2_out_6_156_2407 (protein)
chain: MVEEIFEEAMKEIKELIKKLSEASEEKKISYISKIAGTFYRALQRLREAGASVEELEEFIKRMMEKIKEWLDEEGLPEDIKNLILSSLKAVGDVALEEAK
B31: traf2_out_20_3_2161 (protein)
chain: SELEKKAQEALDEAIALLAEAAKLADPETAKRLEALRARVEASRELSPDDRLVVLSEVRREVLALAEEARRAGREELAAVLEEAADALNKAMNLTYKIIE
B32: traf2_out_17_162_1625 (protein)
chain: SPYEEKKKKFQEELEKIRKKVKELKEKAKKIEELSKEELTDLLVEASEAKRKALELKEELEELKKKYNDEELDKLIKEAEKLAEEFQKIANLFYKKLLEK
B33: traf2_out_13_95_1174 (protein)
chain: EEEKTKKEREIASEAYDEREEVMTAYKEAVVALLGDPAAAALMDEVVRNMNEFTLEHATAQLVAAHPEKAAELQALRDEALAKMKEINKKYTEKLNEIEK
B34: traf2_out_9_108_2585 (protein)
chain: MSEEEKEEELFEKVKELVEEFLEEVDLSEELKEQLKAAIEQAEKLYEEGLKRTANILLAIDLASIAYEVGEEAVEWVLKRLKEIDERLYSAAERRVKLLK
B35: traf2_out_14_154_1268 (protein)
chain: DELWDELEYHSAMRRLYDSVVESLETMSREETKAHLDAATAIVTARVPEKAAEIKATAAEIKAKLDGSEEEVAALKEELKAKAEEHAKKAREAYEKILKE
B36: traf2_out_16_104_1385 (protein)
chain: SAATQAQFDAIIARLNAIADRANRLANRIYKLYEKASPEKKKELSDLLVEVSELRREALAAAIAAEQARAAGGDPAEAQAALDKLEARLAALEKRLAELE
B37: traf2_out_20_8_2271 (protein)
chain: SAEEKHLLEAADLVLDAAELAAAIVKRVLADERAPEIAAEVRAGLAVSVSIDDTPAQILERIAERVDEVLDRLEARTGDPRLRVAREEIRRALAERAAAA
B38: traf2_out_12_161_940 (protein)
chain: SSEHFQELSDVANKAFDKAQEIVDRVAEVSPALRPTFLAVARSLTLPVEEARAILDAAIAAHEAELTPEQLAEVRALGDELLAIQKEAQEEIKKIQEKYR

Target: T1, TRAF2, Q12933
Experiment: median log2 fold change of GCK-ALFA target abundance (FLAG IP / Myc IP barcode read proportion) (log2 ratio); each designed protein is fused to an ALFA-tag nanobody in HEK293 cells to bring the named protein to FLAG-tagged glucokinase (GCK); Myc marks an untargeted standard; higher = target protein stabilised (more abundant)
Conditions: target protein: 3xFLAG-MCP-GCK-ALFA reporter; HEK293 landing pad (RPLP)
Procedure, shortened: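 An ALFA-nanobody-fused binder library was recombined into HEK293 landing-pad cells and induced with 2 μg mL^−1 doxycycline. Cells were transfected with a plasmid expressing a FLAG-tagged target and a Myc-tagged standard. After 48 h, lysates underwent anti-FLAG and anti-Myc immunoprecipitation, and circular RNA barcodes were reverse transcribed, amplified and sequenced. Target abundance is the per-binder median log2 ratio of FLAG to Myc barcode read proportions. Barcodes needed ≥10^−7 proportion in both replicates, binders ≥3 barcodes per replicate, and a 10^−6 pseudocount was added; the two replicates were pooled.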

Binder	median log2 fold change
B1	0.249
B2	0.272
B3	-0.136
B4	-0.311
B5	0.103
B6	0.225
B7	-0.558
B8	0.168
B9	0.15
B10	0.184
B11	0.0818
B12	-0.0422
B13	0.26
B14	0.205
B15	0.334
B16	0.255
B17	0.213
B18	-0.508
B19	-0.0326

Binder	median log2 fold change
B20	0.24
B21	0.0943
B22	0.175
B23	-0.444
B24	-0.257
B25	0.298
B26	0.154
B27	-0.408
B28	0.235
B29	-0.184
B30	0.175
B31	0.236
B32	-0.0863
B33	0.311
B34	0.0402
B35	-0.104
B36	0.103
B37	-0.0343
B38	-1.56
